The source gives no read counts; variants with many changes may rest on few reads.
B1: LINE1-full (parent)
chain: UACGUAGGUGGUUUUCCCCUGAUAGUGCUAAGGGGGCCUGGAAGUUUGGACUGGGCAGAGCUCAACACAGCGUGGCAAAGUGGCUGUGGCUAGACUGCCUCUCUGGAUUCCUCGUCACUCAGCAGGGCAUCUCUGAGAGAAAUGCC

Variants of: B1
Experiment: self-cleavage, relative activity (ratio to wild type); higher = more cleavage; in vitro, sequencing; the parent is a self-cleaving ribozyme

Row | Variant | self-cleavage
1 | A31U A59U A67G G80A U87C A129G | 2.3
2 | U14C U46C U112C A138G | 1.64
3 | U14C A24U U52A A141G | 0.49
4 | U5C A42G U85C U130C | 0
5 | U15A U20A A129U | 0.91
6 | U45A A77G A142G | 2.25
7 | G34A U85C U91C C98U | 0
8 | A79G A94U U102A | 0.4
9 | G32U A42G A117U | 1.45
10 | U39C G44A A69U C99U A107G | 0.02
11 | G34A A67G A78G | 0.19
12 | U14C A50G C68U A77G G82A | 0.11
13 | G40A U130C A142G | 1.36
14 | A57U U73G U104A | 0.02
15 | C90U U130C A142G | 0.07
16 | A43C G60A A69G U81C A124U | 0
17 | U52A A78G A141G | 2.02
18 | U13C U39A C120U A129G | 1.41
19 | G7U A31G U45A | 1.28
20 | G4A U13C C111U | 0.83
21 | A43G A78G A92G A136G A138G | 0
22 | U15C A107U U112A | 1.28
23 | A43U A64G C71U U85C | 0.07
24 | A57G C68U U134C | 0.14

Row | Variant | self-cleavage
25 | A31G U39A G88C | 0.23
26 | U23C A31G A64G U115C | 0.71
27 | U15A A64G U85C U91A | 0.63
28 | U13C G74A A107G | 0.33
29 | A42U A107G A129U | 1.33
30 | U91C A107G A136G | 0.59
31 | A22C U47A A129U | 1.24
32 | U73A A92G C116U A121U A142G | 0.08
33 | U45C A50G U52A U108A | 1.31
34 | U20C U45G A50G | 0.92
35 | U9A U26A U96A A124G A142G | 0.06
36 | G36A U39C U130C | 1.74
37 | U52C U73G G74U A129G A140G | 1.62
38 | U46C U52A A64C A124G | 0.63
39 | A24G A57U A78G | 0.3
40 | U14A U39G A117U | 0.91
41 | U13C G25U U46A U104A U143A | 0.65
42 | U47A U85C U108C U134C | 0
43 | A24G G49A A138G | 1.47
44 | U39A U52G C95U | 0.39
45 | U12G A65G A67G G72A A94G | 0
46 | U1C A22G U87C U132C | 0.4
47 | U23C U96C A138G | 0.14
48 | U26C U62A U115A A124G | 0.15

Row | Variant | self-cleavage
49 | A31U G125U A142G | 1.05
50 | U14A U85C U130C | 0
51 | U62C U73C U91A | 0.71
52 | U46C G48A U104C A124G | 0.97
53 | A31G A78G A79G | 0.26
54 | U1C U12G A64G A77U | 0.5
55 | U14C A79G A136U A138G | 0.78
56 | A67U A107G U112C | 0.1
57 | A22G G44U G97A A124G | 0.13
58 | A2G A67G U73G G114A U119C | 0.68
59 | A6G G34A U47C U73C | 0.51
60 | A43G G48U U85A | 0.07
61 | U46A U47A A77C U108C | 0.98
62 | U13A U45C U47C U85C G122U | 0.19
63 | A43U A77U U115C | 1.51
64 | U12C A138G A142G | 1.12
65 | U13C A69G U91A U143A | 0.39
66 | C16U U26C U73C | 1.23
67 | U52C A136U A140U | 1.16
68 | U9A U47C A64U A92G G135A | 0.34
69 | U9G A65G U87C A117U C133A A141G U143C | 0
70 | U9A U47C A140C A141G | 1.45
71 | U12C A57U U87C A107G | 0
72 | U15C U102C C116U | 1.34

Row | Variant | self-cleavage
73 | A43G A67G A121U | 0.64
74 | U15C U96A G114U C120G | 0.06
75 | G4A U29C A124U | 1.23
76 | U14A U20A A94U | 0.25
77 | G25A U46A U96C U100C | 0.21
78 | C16A G89A U112A U130C | 0.08
79 | G33A U85C U108A U112C | 0.08
80 | C19U G97C U143C | 0.52
81 | U130C A136U A138U | 1.19
82 | U12C A42G U119A | 0.23
83 | A30U A67G A79U | 0.56
84 | A59U A67C G89C | 0.06
85 | U23A A24U A31G A107G C116U | 1.61
86 | C38A U39C A124U | 2.09
87 | U13C G36C U52C A79G U87C U115A U132C G139A | 2.04
88 | U20C A64G A107U C123U A138G | 0.31
89 | G40A U87A A124G A140U | 0.06
90 | U14A U45C U52A U132C | 1.55
91 | U9C A31G A94G U143A | 0
92 | U1A U81A U130C | 2.01
93 | G53A A67U A78G | 0.04
94 | U39A A42G A43G G72A | 1.64
95 | U45C A57U U73A | 0.04
96 | U12A G27U A43G | 0.82

Row | Variant | self-cleavage
97 | A6G U15C A78G U87A U130C A136G | 2.09
98 | A42G A117C C123A | 0.61
99 | U12C U85C U91C | 0.31
100 | U39C A77G G114A | 2.32
101 | U29G C113A A124G A136G | 1.11
102 | U108C U115G A140U | 0
103 | U39A U73C G137A | 2
104 | U12C A24G A57G C116U | 0.98
105 | C3G A30U U46C | 0.24
106 | A69U A77U A121G A129G | 0.08
107 | A30U G34A A50G | 1.12
108 | U45C C113A U132C | 1.19
109 | U12C U46A A77G A138U | 1.48
110 | A50G A67U A107G A138G | 0.06
111 | G44A A57G G58A U62C U81A G127A | 0.01
112 | U5A U12A A136G | 1.13
113 | U102C G114A C131G | 1.56
114 | G27U U47A A77G U112A | 2.63
115 | C37A A50G C90U G126C | 0.02
116 | C19U A22U A69U U112A | 0.13
117 | C99G U104C U108C | 1.47
118 | U9C U20A U96A U119A | 0.27
119 | A2C C19U A42U C63A U119C | 0.11
120 | U5A U12G A94G G105U | 0.3

Row | Variant | self-cleavage
121 | U14C U23A G83A A92G | 0.15
122 | A30G A57G U62A A121U A136U | 0.08
123 | U14C U47C G80U | 1.11
124 | U102C G126U A142G | 1.86
125 | U62A A121U A124G U132A | 0
126 | U5C G7A U23C | 1.24
127 | A59G A79G U96C | 0
128 | G89A U119C U132C | 0.04
129 | C3U A42G A64U U73G A129G | 0.23
130 | A22U U47A U62C A129G A138G | 0.05
131 | U14C U39C A79G U104G U119A | 1.15
132 | U45C A79G A138U A141G | 2.1
133 | A6G A30U C37U U104G | 0.38
134 | A6U U23A A31G A79G | 1.31
135 | A2C U13C A59U A141G | 0.31
136 | U12A A22G A78G | 1.66
137 | U47A A65G U115A | 0
138 | U47A U102C A117G | 1.19
139 | G97A C116A A124G A138G | 0.05
140 | U29C U100A U130C | 1.55
141 | U73C C101U A142G | 1.65
142 | U45C A69G C84U | 0.04
143 | A30U U73C U87A | 0.21
144 | A6G A94G G137U | 0.62

Row | Variant | self-cleavage
145 | U73A U100G A136C | 1.31
146 | U26C A65G A136G | 0.12
147 | U14C G33C U46C A138G | 0.9
148 | U1C U15C U104C | 0
149 | A30U A78G U143A | 0.8
150 | G34A U39G G41U | 0.94
151 | C28A G32U A67C | 0
152 | G32A A57G G89A | 0
153 | A2G U102A U108C | 0.77
154 | U29G A50U U102A U115C U130C | 1.84
155 | A65G C113A C131U | 0.04
156 | A31G U47A A78U U108G A124U | 1.29
157 | U29A C38U U87A U132C | 0.12
158 | G49A A138U A140G | 0.75
159 | C3G A22G A31G A129C | 0.66
160 | A77U A124G A129G | 1.32
161 | A6G A42G C56U A78U A140G | 0.23
162 | U14A A30G U81C U108C C113U | 0.57
163 | C76U U109C A121G | 1.59
164 | U81C U102C U134C | 0
165 | U115C U130C U143C | 1.53
166 | U29C U62C A124U | 0.1
167 | U73A U87C U96A | 0.09

Source: the RNAGym collection of RNA variant scans (doi:10.7554/elife.90254)
